The source gives many values for each of these; only a part stands here.
Legend:
Experiment in all cases: concentration in plasma after dosing
Rat [1] = conditions: dosed: Isoeugenol, 17 mg/kg, iv, Male, F344/N
Rat [2] = conditions: dosed: Isoeugenol, 140 mg/kg, oral, Female, F344/N
Rat [3] = conditions: dosed: Isoeugenol, 140 mg/kg, oral, Female, F344/N; remark: listed apart in the source
Rat [4] = conditions: dosed: Isoeugenol, 140 mg/kg, oral, Male, F344/N
Rat [5] = conditions: dosed: Isoeugenol, 17 mg/kg, iv, Female, F344/N
Rat [6] = conditions: dosed: Isoeugenol, 140 mg/kg, oral, Male, F344/N; remark: listed apart in the source
Rat [7] = conditions: dosed: Isoeugenol, 17 mg/kg, iv, Male, F344/N; remark: listed apart in the source
Rat [8] = conditions: dosed: Isoeugenol, 70 mg/kg, oral, Female, F344/N
Rat [9] = conditions: dosed: Isoeugenol, 70 mg/kg, oral, Female, F344/N; remark: listed apart in the source
Rat [10] = conditions: dosed: Isoeugenol, 70 mg/kg, oral, Female, F344/N; remark: listed apart in the source
Rat [11] = conditions: dosed: Isoeugenol, 70 mg/kg, oral, Female, F344/N; remark: listed apart in the source
Rat [12] = conditions: dosed: Isoeugenol, 70 mg/kg, oral, Female, F344/N; remark: listed apart in the source
Rat [13] = conditions: dosed: Isoeugenol, 70 mg/kg, oral, Female, F344/N; remark: listed apart in the source
Rat [14] = conditions: dosed: Isoeugenol, 140 mg/kg, oral, Male, F344/N; remark: listed apart in the source
Rat [15] = conditions: dosed: Isoeugenol, 140 mg/kg, oral, Female, F344/N; remark: listed apart in the source
Rat [16] = conditions: dosed: Isoeugenol, 17 mg/kg, iv, Male, F344/N; remark: listed apart in the source
Rat [17] = conditions: dosed: Perfluorohexane-1-sulphonic acid – potassium salt, 4 mg/kg, Female, F344
Rat [18] = conditions: dosed: Perfluorohexane-1-sulphonic acid – potassium salt, 4 mg/kg, Female, Harlan Sprague Dawley
Rat [19] = conditions: dosed: Perfluorohexane-1-sulphonic acid – potassium salt, 16 mg/kg, oral, Male, F344
Rat [20] = conditions: dosed: Perfluorohexane-1-sulphonic acid – potassium salt, 4 mg/kg, Female, F344; remark: listed apart in the source
Rat [21] = conditions: 192 h; dosed: Perfluorohexane-1-sulphonic acid – potassium salt; 16 mg/kg; oral; Female; Harlan Sprague Dawley
Rat [22] = conditions: 3 h; dosed: Perfluorohexane-1-sulphonic acid – potassium salt; 16 mg/kg; oral; Female; Harlan Sprague Dawley
Rat [23] = conditions: dosed: Perfluorohexane-1-sulphonic acid – potassium salt, 4 mg/kg, oral, Female, Harlan Sprague Dawley
Rat [24] = conditions: dosed: Fluorotelomer alcohol 8+2, 48 mg/kg, oral, Male, Harlan Sprague Dawley
Rat [25] = conditions: dosed: Fluorotelomer alcohol 8+2, 48 mg/kg, oral, Male, Harlan Sprague Dawley; remark: listed apart in the source
Rat [26] = conditions: dosed: Fluorotelomer alcohol 8+2, 24 mg/kg, oral, Male, Harlan Sprague Dawley
Rat [27] = conditions: dosed: Fluorotelomer alcohol 8+2, 160 mg/kg, oral, Female, Harlan Sprague Dawley
Rat [28] = conditions: dosed: Fluorotelomer alcohol 8+2, 40 mg/kg, oral, Female, Harlan Sprague Dawley
Rat [29] = conditions: dosed: Fluorotelomer alcohol 8+2, 48 mg/kg, oral, Male, Harlan Sprague Dawley; remark: listed apart in the source
Rat [30] = conditions: 3 h; dosed: Fluorotelomer alcohol 8+2; 80 mg/kg; oral; Female; Harlan Sprague Dawley
Rat [31] = conditions: dosed: Fluorotelomer alcohol 8+2, 24 mg/kg, oral, Male, Harlan Sprague Dawley; remark: listed apart in the source
Rat [32] = conditions: dosed: Fluorotelomer alcohol 8+2, 40 mg/kg, oral, Female, Harlan Sprague Dawley; remark: listed apart in the source
Rat [33] = conditions: dosed: Fluorotelomer alcohol 8+2, 160 mg/kg, oral, Female, Harlan Sprague Dawley; remark: listed apart in the source

C/C=C/c1ccc(O)c(OC)c1 [Isoeugenol]
Conditions	concentration in plasma [ng/mL]
Rat [1], 1.5 h	125
Rat [1], 10 min	4260
Rat [2], 0.5 h	1100
Rat [2], 10 h	143
Rat [3], 1.5 h	1250
Rat [3], 6 h	499
Rat [4], 0.5 h	725
Rat [4], 5 h	563
Rat [5], 1 h	245
Rat [5], 2 h	97.5
Rat [6], 1 h	171
Rat [6], 8 h	139
Rat [7], 0.75 h	321
Rat [7], 2.5 h	73.8
Rat [8], 0.75 h	263
Rat [8], 8 h	151
Rat [9], 2 min	194
Rat [9], 4 h	146
Rat [10], 2 h	523
Rat [10], 20 min	717
Rat [11], 1 h	123
Rat [11], 5 h	435
Rat [12], 0.5 h	426
Rat [12], 8 h	108
Rat [13], 0.75 h	364
Rat [13], 3 h	201
Rat [14], 2 h	634
Rat [14], 10 min	1210
Rat [15], 2 h	327
Rat [15], 20 min	1590
Rat [16], 1 h	176
Rat [16], 6 h	21.4

O=S(=O)([O-])C(F)(F)C(F)(F)C(F)(F)C(F)(F)C(F)(F)C(F)(F)F.[K+] [Perfluorohexane-1-sulphonic acid – potassium salt]
Conditions	concentration in plasma [ng/mL]
Rat [17], 3 h	27700
Rat [17], 96 h	4650
Rat [18], 1 h	35000
Rat [18], 48 h	10200
Rat [19], 0.25 h	40900
Rat [19], 864 h	30500
Rat [20], 0.5 h	51400
Rat [20], 24 h	16400
Rat [23], 1 h	15300
Rat [23], 24 h	19400
Rat [23], 288 h	407

Conditions	concentration in plasma [ng/mL]
Rat [21]	5110
Rat [22]	95500

O=C(O)CCC(F)(F)C(F)(F)C(F)(F)C(F)(F)C(F)(F)C(F)(F)C(F)(F)F [Fluorotelomer acid 7+3]
Conditions	concentration in plasma [ng/mL]
Rat [24], 0.25 h	31.8
Rat [24], 6 h	1580
Rat [25], 0.5 h	373
Rat [25], 9 h	916
Rat [26], 0.75 h	261
Rat [26], 48 h	304
Rat [27], 0.25 h	125
Rat [27], 6 h	10200
Rat [28], 1 h	1380
Rat [28], 24 h	482
Rat [29], 1 h	631
Rat [29], 24 h	311
Rat [31], 0.75 h	373
Rat [31], 48 h	305
Rat [32], 48 h	176
Rat [32], 192 h	56.9
Rat [33], 0.75 h	1400
Rat [33], 12 h	3070

Conditions	concentration in plasma [ng/mL]
Rat [30]	10700
